# Measured values: the supplement of paper PMC11417369
# ± gives the standard deviation of the averaged measurements. The list shows a part of the results.
# System: PfAP2-I AP2 domain 3 (GST-tagged)
# Assay: gcPBM binding intensity (ln(normalized median fluorescence intensity)); higher = stronger DNA binding
# Outline: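 In this array assay, P. falciparum DNA-binding domains with a GST tag, expressed in E. coli, were applied for 1 h to primer-extended double-stranded 36-bp intergenic genomic probes and negative controls on an Agilent 4 × 180k array. Bound protein was visualised with Alexa488 anti-GST antibody at 488 nm. Binding intensity is the highest Masliner-normalised natural-log median intensity across replicate spots of either probe orientation.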
row,Sequence,gcPBM binding intensity (ln)
1,ATTAATTATGTATTTCAACAAAGAAGTGTTATATAT [GTGCAC_negctrl_site215],7.91 ± 0.54
2,TCTTTATCCTTTCTCTTTTTATTAATTATAATATTC [TGCATGCA_negctrl_site584],8.15 ± 0.67
3,ATTATTTGTAATATAACACACACAAAAAAAGACTCG [CACACA_site8487],7.83 ± 0.43
4,TATCATTTATATATGTGTACTTATTTATTTATTTAT [XGTACX_site7961],7.96 ± 0.28
5,ATATATACCTAAGACACACACATATATATATATATA [CACACA_site764],9.36 ± 0.35
6,AAATGTACAGGACGCACACACATATATATATATATA [CACACA_site3674],9.55 ± 0.37
7,AAGGAAAATATTAACTGTACATATAAAATATATATA [XGTACX_site5310],7.91 ± 0.71
8,AATGAATCCTTATATACACACATTATTATAGTATAG [CACACA_site7454],7.79 ± 0.53
9,ATTTATATATATTTATGTACGTATTAATTTTTTTTT [XGTACX_site3877],7.76 ± 0.55
10,AAAGAAAATTAAAAAGAACACACAAATATATATATA [CACACA_site9196],9.06 ± 0.17
11,AGTATACTCAAACACACACACACAAAAAAAAAAAAA [CACACA_site4398],8.04 ± 0.68
12,TAAGAAATAAATAGTACACACATAGACACCCACCGA [CACACA_site1516],8.86 ± 0.15
13,ACAATATTATTATTTAACCATACACAATTATATGTC [XGTACX_negctrl_site378],7.66 ± 0.62
14,GTAATATTAATATAATGTACAAAATGAAACATATAT [XGTACX_site6219],7.71 ± 0.57
15,CAGTTTAATTTACATAGTACATAATATTTTAATTTT [XGTACX_site1793],7.66 ± 0.2
16,CAAAAAGATAAGGTGTGTACGTATTATAATTTTAAA [XGTACX_site531],8 ± 0.34
17,TGAAATGATCTTTAGTTGCACTTAAAAATATATATA,8.8 ± 0.23
18,ATTTAATTTTCCAAATGTACTTATATTTTTATGAAA [XGTACX_site6144],7.79 ± 0.28
19,TAGATACATAAACACACACACACATACATATATACA [CACACA_site9139],7.88 ± 0.33
20,GGTATATAAAAATATTGTACTTAAAAAAATATGTAT [XGTACX_site6253],7.83 ± 0.42
21,TATTTCACTTTTTGTCTGCACTAAAATTTTATGGTA,9.46 ± 0.32
22,AAGTATAGTCTTACATATATATATATATATATATAT [GTGCAC_negctrl_site280],9.36 ± 0.74
23,AAAAAAAAAAAAAACACACACATATATATAATATAT [CACACA_site3172],8.07 ± 0.11
24,TTTTGACTAATATAATATGTTAAGAATTAATAAATA [XGTACX_negctrl_site35],7.21 ± 0.39
25,TAAAAAAGAAAATATATACACACCAAAAAAAAAAAA [CACACA_site3146],7.92 ± 0.76
